# Measurements from the supplement of paper PMC12632987.
# Over roughly 2,300 sequences, “median log2 fold change of GCK-ALFA target abundance (FLAG IP / Myc IP barcode read proportion)” has its median near 0.095; the lowest 2% begin near -0.47. Some of the results follow.
# B1: LC3A_3_1415 (protein)
# chain: MEEKLKETLEKLKEAGHSEETLEALKELVDKLKELGAEEEAERVLELVLENKDISSEELLEVLKEALRLLTEEKLSPEEVVKELERELRIARNAQEIIEL
# B2: LC3A_3_1698 (protein)
# chain: MEELLKEAEKILEEKGRSEETKEAALAALTALLERGYEEAAKTLLELLKESEDLSDEILKAFFEDVLHYVQTEKKNEEEVIKFIKEEYEIAKSEEEIEEL
# B3: LC3A_59_2034 (protein)
# chain: DAEIEAYVARLRAAKDDDEAMAEIILEGFERFKDDPEKLARLKEALVAALVELGLLSEELARRLMEEAERIVEEEEDREEALKRILEELRVARNEEEIEE
# B4: LC3A_28_1243 (protein)
# chain: SAVEEQIAAARAAVKAAVAAGEEALVELKVTGETTQEDVDKIIAAMKEIAELGKDLPALDIIIDVDKDVPQEHIDKLADAAEEIEKKYPNVTVIIALEER
# B5: LC3A_28_905 (protein)
# chain: GSSLEEAKKALERVKAAVAAGSQEPLVLEITAPSNQEDVEEFLKLLEELAKEASKLKGVSIIIDIDESVSQENRDKIIDKADELEKKYPNVTVIIALPES
# B6: LC3A_28_662 (protein)
# chain: SAVDERLAAALAEAEAARAAGEPTVVTVEVPGDADEEDIERIIEALERIAKILAPIKGSAIIIDIDGDLDEEHRDRLIDKAEELEEKYPNVTVIIAEEER
# B7: LC3A_132_299 (protein)
# chain: QEEKAEEILKKVKELVEEAKANIDDDEKVKKLLEEIEKLIEEAEKELSPELLAEVMKEVAELLDELSQYFLEKGKEELSMLADGLAIEAESLALRAEKKI
# B8: LC3A_61_2039 (protein)
# chain: EVKEVEWAIPPEEAERANKAFQELLEFAREVDEELAEKLYELVKDNAESESSARYALKVLERAVEELRKAKEEGKPKEELLKIIEDTIDELALIPLDDLK
# B9: LC3A_28_816 (protein)
# chain: MKKEEIIAEIREQAEKALDSDEDALIEVKISGTITKEEAKEIMEVVREEAKRLAEKRKVYIVIDFEEPVDQEVLDLILDKAEEIEEEIEGVDVIVALPET
# B10: LC3A_141_370 (protein)
# chain: KTVTFTKTFTNSSLDEVIAGMEELEKEVLAAHEKLGGGKVKVTVTVTIKNSKTGETKVIKEEFEADKETLEMIMEGVLIEAASARLTENANITVTVTLEA
# B11: LC3A_28_1128 (protein)
# chain: SETDKIIAEIEKQAEEAIEKGEDALIEVTITENITLEDAKRIAEKIEKEAKRLSEKGKVSIVVSFSSESNAEQIDFFGEKAEEIEKKYPNVSVIIALPER
# B12: LC3A_28_806 (protein)
# chain: SPVRENVEKAEKEALEQIEKGEPVFVEITLPADATQEEIDYVTESIRRLAKKAKEAGIKSLSVVVDSANNQEAITAISETEDELRKEGLPINVIIALDEP
# B13: LC3A_141_369 (protein)
# chain: KTVTLKLELKNSSLDEVIEKMEELEEEVLKAYEELGGGKVKVTVTLTFKNSKTGETTVIKEEFEADKEELEMLLEGVLIEAASYRLTENADITVTVTLEA
# B14: LC3A_free_39_2176 (protein)
# chain: SAAALEEAKAELLALAAEEGEETLKIAKEILELIEGNLELVELLVEGLKKIREEGGDVRAALEEILKEIKRLKEEGKSMEEILERVKEILEDFLNLIPLD
# B15: LC3A_6_2068 (protein)
# chain: VRVEVTIDVLLPEENEEEATKKAVKIAEEGIKALEEELKAKGLLGDYFEVKIEVEPGFVKVVVEMEVKEEAVPLVEKMAGEMADELSKVAKAVMLSIEVE
# B16: LC3A_free_8_2515 (protein)
# chain: MNQEFANKATEILEELEEKLVELLKEKGASELDILEAELLIGSAIAEVISLSDKSPEEILKAIRESLEELVEELEEHREEVKELAEEALKKIEEKKKELE
# B17: LC3A_28_736 (protein)
# chain: SEIDENIEKALEEAKKAAEKGEPVVITIKVPGTATQEDIEKVIETLKEIAEILKDVKDQTIIIDIEGGVPQEHIDKLLDAGEEIEEKYPNITVIFALDEE
# B18: LC3A_28_734 (protein)
# chain: SELDKNLEEALKKAKEAAAKGEPVVITITVPGTATEEDIEKVIEAMYEIAEILKDVKDQTIIVDIEGGVKQEHIDKLLDAGEEIEKKYPNVTVIFALDED
# B19: LC3A_28_1008 (protein)
# chain: MSVVEKTKEEAKKALEEAKKGKDAYLEIEITKETTLEEVKEINEIIEKTAKEISKIPNVKLYIVVLDDSNQENHDIMADAMDKIEAEYPNVSSIIAYTDD
# B20: LC3A_3_1770 (protein)
# chain: MEEFIEEVKKKLREEGADEELIEKAARALELLLERGLEETAKEVAEALLELVKKSKELALELAEDVLELLETSDLSPEELAKAVRELIRLALLESEIEEL
# B21: LC3A_28_1198 (protein)
# chain: SAAEETIAAIKKQAAAALAEGDGTVIEVKITKEMTEEDIDKIIATIKEEAAKLADVPAVSIVIDVEAGVPQENITKLANTGDEIEAAYPNITVIIALDED
# B22: LC3A_127_167 (protein)
# chain: KKEELLREAEKAVDELLKLLRDPNATLEEIRAQAEKLLELAKELLKEDPSAKPILEDAESLLETVKKLEKAPEEEKEELREHAEMIAEGILIEVLSLELK
# B23: LC3A_55_2009 (protein)
# chain: MKVDIVLDVDEKTGEITGLEVYVDDAEPAILAALRAAGKELAAELFERAVAAPLGPEEMAALRARYGAEAVKAAVDALIETVRATPGVDLNVIEALNDTS
# B24: LC3A_free_46_2360 (protein)
# chain: AEIDISFLLKGKTEEEAKEFAEELEKRFREAAAAAGADIKIETKIEKDEEGDIFIDVKLTVTAANAAQRQAAVQAILDIVDELSKEKNIAAIVSVEDVAP
# B25: LC3A_free_8_2523 (protein)
# chain: ASQAFADAAVKILDELEEKLVKLLKEKGASRLDILEAELLVGSIIAEVISLVDESIEAILKSIKEGLEELVEELEEHKEEVTKLANEALKKIEEKAKELK
# B26: LC3A_3_1621 (protein)
# chain: LEEEVERALELLKEAGASEETLEAFRETAELLLEKGYEEALKTLIEEMEEIKDLPDEIILDALEEIKEVVETEDLDEEELIEEIKEIFNTARSESEIIEL
# B27: LC3A_132_306 (protein)
# chain: GEELAKELIETAKKALELAKTDPDAKEEILELLKKIEELMKKLAKEASPELAAEAFEEVMDIMLELSRVAAAQGWDEVADEAFALAAEAAQKKAEAEAKL
# B28: LC3A_3_1705 (protein)
# chain: MEELLKEARKVLEEHGKSEETIKAALEALKALLERGFEEAAKTFLELLKESENLSDEILLWMFEDVKKVVADPTKTEEEVIAAIKEIWNIAKNDEEIEEL
# B29: LC3A_141_380 (protein)
# chain: KTETKTKTFKNLPADEAEEKGIAYLEETFAEAKAAGAKTVTITITVTATVDGKTYTRTETFSGDVTNEMILGGAEVFLGLVALQFEGHKLTVTVTVTLTY
# Target: MAP1LC3A, Q9H492
# Test: median log2 fold change of GCK-ALFA target abundance (FLAG IP / Myc IP barcode read proportion) (log2 ratio); each designed protein is fused to an ALFA-tag nanobody in HEK293 cells to bring the named protein to FLAG-tagged glucokinase (GCK); Myc marks an untargeted standard; higher = target protein stabilised (more abundant)
# Conditions: target protein: 3xFLAG-MCP-GCK-ALFA reporter; HEK293 landing pad (RPLP)
# Method in brief: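 An ALFA-nanobody-fused binder library was recombined into HEK293 landing-pad cells and induced with 2 μg mL^−1 doxycycline. Cells were transfected with a plasmid expressing a FLAG-tagged target and a Myc-tagged standard. After 48 h, lysates underwent anti-FLAG and anti-Myc immunoprecipitation, and circular RNA barcodes were reverse transcribed, amplified and sequenced. Target abundance is the per-binder median log2 ratio of FLAG to Myc barcode read proportions. Barcodes needed ≥10^−7 proportion in both replicates, binders ≥3 barcodes per replicate, and a 10^−6 pseudocount was added; the two replicates were pooled.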
row,Binder,median log2 fold change
1,B1,0.237
2,B2,0.104
3,B3,0.131
4,B4,0.0677
5,B5,-0.141
6,B6,-0.324
7,B7,0.229
8,B8,0.267
9,B9,-0.0051
10,B10,-0.474
11,B11,0.226
12,B12,-0.339
13,B13,-0.618
14,B14,0.19
15,B15,0.184
16,B16,0.159
17,B17,-0.121
18,B18,-0.00474
19,B19,-0.306
20,B20,0.189
21,B21,0.149
22,B22,0.172
23,B23,0.282
24,B24,0.146
25,B25,-0.0394
26,B26,-0.465
27,B27,0.0777
28,B28,0.202
29,B29,-0.241
